Assay [1] concerns the target JAK1 (human (endogenous in HEK293T)) (UniProt P23458). As to the kind of experiment: co-IP; JAK1, JAK2 or JAK3 immunoprecipitated with specific antibodies (5 ug, protein G-Agarose, 4 C, washed four times with RIPA buffer) from lysates of HEK293T cells overexpressing WT or mutant PTPN6; blot for PTPN6.
The target in assay [2] is JAK2 (human (endogenous in HEK293T)) (UniProt O60674). The description is as above.
The target of assay [3] is JAK3 (human (endogenous in HEK293T)) (UniProt P52333). The description is as above.
A further assay has as its target PTPN6 A550V (human) (UniProt P29350). The experiment in a line: co-IP; PTPN6 immunoprecipitated with PTPN6 antibody (5 ug, protein G-Agarose, 4 C, washed four times with RIPA buffer) from lysates of HEK293T cells overexpressing WT or mutant PTPN6; blot for STAT3.
The next assay has as its target PTPN6 N225K (human) (UniProt P29350). The description is as above.

By UniProt entry, the sequences of proteins in these tests, tags left out. Where a name states a change or a piece, a line headed by the entry shows the natural chain unless it says otherwise.
UniProt P23458: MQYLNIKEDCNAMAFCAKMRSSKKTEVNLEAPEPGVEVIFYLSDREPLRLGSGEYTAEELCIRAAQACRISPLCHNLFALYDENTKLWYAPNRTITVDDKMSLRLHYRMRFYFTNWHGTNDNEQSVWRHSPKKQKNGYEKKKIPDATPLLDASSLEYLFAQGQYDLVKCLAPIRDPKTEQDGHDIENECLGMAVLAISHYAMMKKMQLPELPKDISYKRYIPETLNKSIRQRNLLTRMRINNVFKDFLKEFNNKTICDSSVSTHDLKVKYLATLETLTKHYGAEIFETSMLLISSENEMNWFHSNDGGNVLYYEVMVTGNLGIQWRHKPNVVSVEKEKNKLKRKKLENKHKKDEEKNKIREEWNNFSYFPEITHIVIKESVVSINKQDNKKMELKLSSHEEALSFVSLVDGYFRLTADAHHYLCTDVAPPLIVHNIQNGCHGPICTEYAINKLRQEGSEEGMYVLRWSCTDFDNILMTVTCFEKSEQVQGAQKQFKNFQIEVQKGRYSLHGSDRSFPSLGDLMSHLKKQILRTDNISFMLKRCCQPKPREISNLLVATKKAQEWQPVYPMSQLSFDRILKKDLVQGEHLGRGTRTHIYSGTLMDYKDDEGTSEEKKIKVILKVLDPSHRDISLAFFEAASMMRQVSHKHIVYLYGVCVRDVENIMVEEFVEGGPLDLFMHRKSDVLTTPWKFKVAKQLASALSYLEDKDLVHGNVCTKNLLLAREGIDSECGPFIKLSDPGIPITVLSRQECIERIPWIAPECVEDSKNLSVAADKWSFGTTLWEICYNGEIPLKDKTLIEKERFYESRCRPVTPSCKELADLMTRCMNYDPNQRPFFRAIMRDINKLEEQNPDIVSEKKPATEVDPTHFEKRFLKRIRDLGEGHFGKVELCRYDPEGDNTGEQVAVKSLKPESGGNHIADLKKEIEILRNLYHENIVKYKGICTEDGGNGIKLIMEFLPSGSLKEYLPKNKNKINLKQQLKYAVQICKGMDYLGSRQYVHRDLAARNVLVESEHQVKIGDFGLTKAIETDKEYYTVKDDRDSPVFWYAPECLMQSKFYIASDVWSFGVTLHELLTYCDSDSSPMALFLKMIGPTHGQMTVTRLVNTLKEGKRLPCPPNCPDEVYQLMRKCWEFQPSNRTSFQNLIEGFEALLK
UniProt O60674: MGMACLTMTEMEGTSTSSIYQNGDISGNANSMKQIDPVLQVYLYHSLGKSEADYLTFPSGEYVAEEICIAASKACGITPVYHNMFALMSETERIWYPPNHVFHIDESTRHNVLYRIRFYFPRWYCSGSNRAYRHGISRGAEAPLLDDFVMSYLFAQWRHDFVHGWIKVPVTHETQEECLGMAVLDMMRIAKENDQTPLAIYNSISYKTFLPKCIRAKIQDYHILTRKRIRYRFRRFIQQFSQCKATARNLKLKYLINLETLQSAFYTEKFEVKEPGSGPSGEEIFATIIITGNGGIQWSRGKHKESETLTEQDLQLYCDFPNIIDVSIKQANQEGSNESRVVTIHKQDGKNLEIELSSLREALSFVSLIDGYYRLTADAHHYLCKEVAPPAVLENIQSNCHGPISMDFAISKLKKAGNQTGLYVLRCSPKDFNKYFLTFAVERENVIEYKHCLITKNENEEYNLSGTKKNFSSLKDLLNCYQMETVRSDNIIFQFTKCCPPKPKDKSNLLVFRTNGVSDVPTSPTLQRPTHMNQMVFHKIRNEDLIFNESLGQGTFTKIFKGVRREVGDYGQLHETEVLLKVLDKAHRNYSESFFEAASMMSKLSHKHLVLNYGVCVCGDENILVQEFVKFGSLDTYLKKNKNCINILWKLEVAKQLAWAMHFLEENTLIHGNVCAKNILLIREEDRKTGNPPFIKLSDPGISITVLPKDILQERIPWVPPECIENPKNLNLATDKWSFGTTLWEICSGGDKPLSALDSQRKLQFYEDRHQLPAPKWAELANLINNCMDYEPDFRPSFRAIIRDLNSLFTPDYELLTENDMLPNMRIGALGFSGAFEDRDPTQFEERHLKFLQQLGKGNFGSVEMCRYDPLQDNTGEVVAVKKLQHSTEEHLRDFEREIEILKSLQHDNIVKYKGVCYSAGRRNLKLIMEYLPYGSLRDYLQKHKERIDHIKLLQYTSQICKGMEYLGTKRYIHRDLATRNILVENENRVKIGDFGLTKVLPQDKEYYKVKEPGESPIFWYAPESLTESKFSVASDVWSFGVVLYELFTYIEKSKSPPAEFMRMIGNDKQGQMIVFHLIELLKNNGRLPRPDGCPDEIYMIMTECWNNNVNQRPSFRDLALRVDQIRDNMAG
UniProt P52333: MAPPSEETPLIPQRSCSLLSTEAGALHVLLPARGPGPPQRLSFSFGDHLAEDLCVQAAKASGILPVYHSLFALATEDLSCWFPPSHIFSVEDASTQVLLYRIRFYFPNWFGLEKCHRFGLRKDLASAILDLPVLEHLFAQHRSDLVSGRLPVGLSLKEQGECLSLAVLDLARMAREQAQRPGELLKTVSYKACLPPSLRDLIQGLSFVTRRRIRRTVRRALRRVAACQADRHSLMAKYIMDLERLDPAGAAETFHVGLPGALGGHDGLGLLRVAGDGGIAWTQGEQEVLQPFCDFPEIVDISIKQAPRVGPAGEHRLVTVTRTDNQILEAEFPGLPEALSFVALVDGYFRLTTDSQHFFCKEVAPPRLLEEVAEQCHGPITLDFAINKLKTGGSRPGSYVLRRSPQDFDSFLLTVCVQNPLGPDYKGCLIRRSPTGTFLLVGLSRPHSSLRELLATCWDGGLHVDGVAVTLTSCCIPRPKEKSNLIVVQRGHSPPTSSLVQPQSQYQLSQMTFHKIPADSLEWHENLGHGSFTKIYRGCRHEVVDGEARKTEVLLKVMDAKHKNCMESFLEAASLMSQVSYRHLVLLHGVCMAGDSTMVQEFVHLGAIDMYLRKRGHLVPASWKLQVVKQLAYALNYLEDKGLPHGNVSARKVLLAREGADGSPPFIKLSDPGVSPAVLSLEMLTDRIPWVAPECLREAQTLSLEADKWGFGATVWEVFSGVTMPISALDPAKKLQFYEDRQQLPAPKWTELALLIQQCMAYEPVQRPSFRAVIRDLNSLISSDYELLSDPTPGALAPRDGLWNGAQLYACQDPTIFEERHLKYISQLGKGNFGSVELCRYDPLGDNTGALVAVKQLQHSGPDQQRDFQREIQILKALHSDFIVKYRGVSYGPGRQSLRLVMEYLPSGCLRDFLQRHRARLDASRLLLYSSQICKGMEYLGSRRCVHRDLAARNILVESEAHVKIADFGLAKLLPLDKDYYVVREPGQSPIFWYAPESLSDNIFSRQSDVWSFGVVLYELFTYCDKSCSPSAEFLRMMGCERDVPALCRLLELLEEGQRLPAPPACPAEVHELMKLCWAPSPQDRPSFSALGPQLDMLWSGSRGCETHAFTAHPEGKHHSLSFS
UniProt P29350: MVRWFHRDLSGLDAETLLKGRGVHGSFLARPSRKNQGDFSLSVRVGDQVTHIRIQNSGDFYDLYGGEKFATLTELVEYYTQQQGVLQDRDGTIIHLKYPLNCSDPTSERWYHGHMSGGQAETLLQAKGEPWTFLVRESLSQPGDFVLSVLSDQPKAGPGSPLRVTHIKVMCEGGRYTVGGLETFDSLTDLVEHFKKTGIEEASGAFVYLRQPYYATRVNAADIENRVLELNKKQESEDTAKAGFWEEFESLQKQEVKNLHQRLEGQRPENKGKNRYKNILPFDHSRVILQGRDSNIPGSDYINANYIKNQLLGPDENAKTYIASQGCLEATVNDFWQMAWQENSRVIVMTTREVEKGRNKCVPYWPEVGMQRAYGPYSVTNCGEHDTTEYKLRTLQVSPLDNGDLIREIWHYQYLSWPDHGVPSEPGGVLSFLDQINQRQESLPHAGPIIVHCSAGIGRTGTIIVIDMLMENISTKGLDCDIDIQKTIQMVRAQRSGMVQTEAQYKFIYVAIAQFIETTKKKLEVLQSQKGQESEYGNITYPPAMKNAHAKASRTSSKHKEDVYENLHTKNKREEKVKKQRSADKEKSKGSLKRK
UniProt P40763: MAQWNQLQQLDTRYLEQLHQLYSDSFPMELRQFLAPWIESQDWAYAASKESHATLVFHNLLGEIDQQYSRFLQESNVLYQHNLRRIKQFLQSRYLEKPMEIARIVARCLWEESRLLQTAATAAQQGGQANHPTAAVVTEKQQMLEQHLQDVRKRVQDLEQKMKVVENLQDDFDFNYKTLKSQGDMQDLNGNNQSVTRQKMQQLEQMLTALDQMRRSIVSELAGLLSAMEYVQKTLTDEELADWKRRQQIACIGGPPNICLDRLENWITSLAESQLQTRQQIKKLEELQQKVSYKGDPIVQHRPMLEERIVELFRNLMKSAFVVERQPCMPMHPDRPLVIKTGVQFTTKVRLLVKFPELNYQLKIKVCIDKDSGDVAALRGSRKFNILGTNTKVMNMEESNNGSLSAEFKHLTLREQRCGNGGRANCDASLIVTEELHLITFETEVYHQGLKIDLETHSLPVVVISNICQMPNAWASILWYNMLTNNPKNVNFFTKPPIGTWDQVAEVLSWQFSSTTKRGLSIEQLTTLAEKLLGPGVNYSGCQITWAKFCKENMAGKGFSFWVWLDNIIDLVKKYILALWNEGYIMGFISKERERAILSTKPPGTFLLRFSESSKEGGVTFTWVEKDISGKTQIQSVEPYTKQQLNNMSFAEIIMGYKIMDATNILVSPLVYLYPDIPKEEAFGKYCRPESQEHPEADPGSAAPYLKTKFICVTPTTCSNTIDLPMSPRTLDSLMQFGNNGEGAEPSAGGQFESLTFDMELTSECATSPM

No constants are given. Whether binding was seen depends on the method and setting. Binding seen in cells or lysates may run through a third protein. Some binding calls cover weakened binding; strength is not graded here.

Turning to “PTPN6 A550V (from UniProt P29350-1 1-595) (enzyme)”, the figures for the binding entry in assay [1], in assay [2] and in assay [3] were “binds weakly”, “binds weakly” and “binds”, respectively.

In the case of “PTPN6 N225K (from UniProt P29350-1 1-595) (enzyme)”, the binding entry in assay [1] was “binds weakly”; in assay [2] it was “binds weakly”; in assay [3], “binds”.

For the substance “PTPN6 wild type (from UniProt P29350-1 1-595) (enzyme)”, the binding entry in assay [1] is recorded as “no binding”; in assay [2], “no binding”; in assay [3], “binds”.

Turning to STAT3 (from UniProt P40763 1-770), the binding entry in the assay with PTPN6 A550V (human) and with PTPN6 N225K (human) was “no binding” throughout.

The values above are taken from PMC4792586.
